Measurements reported in US20250325717A1, “ANTI-NUCLEOPHOSMIN 1 ANTIBODY AND ANTIBODY CONJUGATE COMBINATION THERAPIES” (The Children's Medical Center Corporation, priority 2022, published 2025).

Tests used:
Format in all cases: cell-based
[1] = tested on: NPM1 on human patient derived xenograft (PDX) cells; test: FACS binding to human PDX cells transplanted into a mouse model
Text: (§1) Given that a variety of murine and human leukemia cell lines express cell surface WT and/or mutant NPM1, it was subsequently assessed whether the isolated antibodies could also bind to the surface of these cells. […] These antibodies could further be used in other applications, including, for example, diagnostic agents by instead conjugating the antibodies with an imaging agent, which can in turn be used to locate and measure the relative abundance of cancer cells in a patient.

[2] = biological target: T1, surface localized NPM1 on primary murine MLL-rearranged AML cells (Mus musculus, UniProt Q61937); test: FACS binding to primary murine MLL-rearranged AML cells
T1 construct: endogenous in cells; host or cells: primary murine MLL-rearranged AML cells
T1 sequence (Q61937 whole entry): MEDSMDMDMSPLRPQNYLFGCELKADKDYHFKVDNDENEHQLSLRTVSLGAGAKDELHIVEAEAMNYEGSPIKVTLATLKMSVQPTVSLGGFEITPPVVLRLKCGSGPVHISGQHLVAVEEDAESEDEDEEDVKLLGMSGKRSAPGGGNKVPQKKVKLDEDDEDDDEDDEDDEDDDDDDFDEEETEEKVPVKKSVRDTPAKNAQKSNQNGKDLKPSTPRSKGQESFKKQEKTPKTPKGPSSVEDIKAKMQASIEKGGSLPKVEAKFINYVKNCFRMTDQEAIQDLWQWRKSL
Text: as §1

[3] = tested on: surface localized NPM1 on primary murine NPM1c AML cells; test: FACS binding to primary murine NPM1c AML cells
Text: as §1

[4] = tested on: host murine bone marrow cells; test: FACS binding to host murine bone marrow cells of PDX mice; conditions: host bone marrow of PDX mouse model
Text: as §1

B1: Ab2 (antibody)
heavy: [sequence of about 100 residues not given]WRNNAFDYWGQGTLVTVSSAKTTAPSVYPLAPVCGDTTGSSVTLGCLVKGYFPEPVTLTWNSGSLSSGVHTFPAVLQSDLYTLSSSVTVTSSTWPSQSITCNVAHPASSTKVDKKIEPRGPTIKPCPPCKCPAPNLLGGPSVFIFPPKIKDVLMISLSPIVTCVVVDVSEDDPDVQISWFVNNVEVHTAQTQTHREDYNSTLRVVSALPIQHQDWMSGKEFKCKVNNKDLPAPIERTISKPKGSVRAPQVYVLPPPEEEMTKKQVTLTCMVTDFMPEDIYVEWTNNGKTELNYKNTEPVLDSDGSYFMYSKLRVEKKNWVERNSYSCSVVHEGLHNHHTTKSFSRTPGK
light: SSELTQDPAVSVALGQTVRITCQGDSLRSYYASWYQQKPGQAPVLVIYGKNNRPSGIPDRFSGSSSGNTASLTITGAQAEDEADYYCNSSPRLKHRVVFGGGTKLTVLGQPKSSPSVTLFPPSSEELETNKATLVCTITDFYPGVVTVDWKVDGTPVTQGMETTQPSKQSNNKYMASSYLTLTARAWERHSSYSCQVTHEGHTVEKSLSRADCS
binding to NPM1 on PDX cells [1]: bound
binding to surface localized NPM1 [2]: capable of binding
binding to surface localized NPM1 [3]: capable of binding
binding to host murine bone marrow cells [4]: without binding
